# In ChEMBL document CHEMBL5606458, “ASAP - ZIKV NS2B-NS3 protease fluorescence single point” (2024):
# Among all 2,700 compounds or so, about 160 (5.9%) showed an effect of 50% or more. This is one part of the list.
# Molecular target: Nonstructural protein 3 (Zika virus) (UniProt A0A024AXB9)
# [1] = PRVABC59, Concentration 50.0 uM, Number of replicates 1.0
# [2] = PRVABC59, Concentration 15.0 uM, Number of replicates 1.0
# [3] = PRVABC59, Concentration 10.0 uM, Number of replicates 1.0
# Sequence of UniProt A0A024AXB9 (A0A024AXB9 as listed by the source): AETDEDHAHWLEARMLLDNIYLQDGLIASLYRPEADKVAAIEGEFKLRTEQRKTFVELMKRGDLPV
structure (smiles),measurement,setting,value
COc1ccc(S(=O)(=O)Nc2ccc(C(=O)Nc3nccs3)cc2)cc1,inhibition,"PRVABC59, Concentration 49.5 uM, Number of replicates 2.0, Standard deviation 0.4374719806633149 %",-2.38%
same,inhibition,"PRVABC59, Concentration 99.01 uM, Number of replicates 2.0, Standard deviation 0.6866406930181425 %",-2.04%
same,inhibition,"PRVABC59, Concentration 198.0 uM, Number of replicates 2.0, Standard deviation 2.8226447457178896 %",-5.52%
c1ccc2c(C[C@H]3COCCN3Cc3n[nH]c4ccccc34)c[nH]c2c1,inhibition,"PRVABC59, Concentration 49.5 uM, Number of replicates 2.0, Standard deviation 2.3213558615007135 %",3.6%
same,inhibition,"PRVABC59, Concentration 99.01 uM, Number of replicates 2.0, Standard deviation 2.1736805535764847 %",8.35%
same,inhibition,"PRVABC59, Concentration 198.0 uM, Number of replicates 2.0, Standard deviation 1.6192495510088922 %",13.2%
COc1cccc(CN(C(=O)C2CCN(c3ccc(C=O)cc3)CC2)C23CC4CC(CC(C4)C2)C3)c1,inhibition,[1],31.6%
O=C(Nc1ccc(F)cc1C(F)(F)F)c1cc(Cl)ccc1NS(=O)(=O)c1ccc(Oc2ccccc2Cl)cc1,inhibition,[2],25%
O=Cc1ccc(N2CCC(C(=O)N3CCN(Cc4cccc(F)c4)CC3)CC2)cc1,inhibition,[1],21.9%
Cc1cc(CO)c2cccc(NC(=O)CCN)c2n1,inhibition,"PRVABC59, Concentration 49.95 uM, Number of replicates 2.0, Standard deviation 0.34164167967973086 %",58.9%
same,inhibition,"PRVABC59, Concentration 99.9 uM, Number of replicates 2.0, Standard deviation 0.25939261057290325 %",94.2%
CN(CCc1ccc([N+](=O)[O-])cc1)C(=O)C1CCN(c2ccc(C=O)cc2)CC1,inhibition,[1],28.5%
CNC(=O)Cc1cn(S(=O)(=O)c2ccc(Oc3ccccc3Cl)cc2)c2ccc(Cl)cc12,inhibition,"PRVABC59, Concentration 49.5 uM, Number of replicates 2.0, Standard deviation 2.185088188181837 %",9.42%
same,inhibition,"PRVABC59, Concentration 99.01 uM, Number of replicates 2.0, Standard deviation 0.10446686459304239 %",11.4%
same,inhibition,"PRVABC59, Concentration 198.0 uM, Number of replicates 2.0, Standard deviation 2.478900275472253 %",15.5%
Cc1cc(CO)c2cccc(Cc3ccccc3C(=O)N[C@H]3C[C@@H](O)C3)c2n1,inhibition,"PRVABC59, Concentration 49.95 uM, Number of replicates 2.0, Standard deviation 0.08913889872660044 %",-8.45%
same,inhibition,"PRVABC59, Concentration 99.9 uM, Number of replicates 2.0, Standard deviation 0.1730340551488695 %",-7.69%
CCCOc1cccc(CCNC(=O)c2cc(Cl)ccc2NS(=O)(=O)c2ccc(Oc3ccccc3Cl)cc2)c1,inhibition,[2],28.2%
CCc1ccc(CN(CC(C)C)C(=O)c2cc(Cl)ccc2NS(=O)(=O)c2ccc(Oc3ccccc3Cl)cc2)cc1,inhibition,[2],25.6%
Cc1n[nH]c(NC(=O)c2cc(Cl)ccc2NS(=O)(=O)c2ccc(Oc3ccccc3Cl)cc2)c1Br,inhibition,[2],38%
Cc1cc(NC(=O)C2CCN(c3ccc(C=O)cc3)CC2)cc(C)c1Br,inhibition,[1],17.4%
N#Cc1cc(Cl)c(NC(=O)C2CCN(c3ccc(C=O)cc3)CC2)c(Cl)c1,inhibition,[1],24.3%
O=C(Nc1cc(Br)cc(C(F)(F)F)c1)c1cc(Cl)ccc1NS(=O)(=O)c1ccc(Oc2ccccc2Cl)cc1,inhibition,[2],24%
COc1cc(CNC(=O)C2CCN(c3ccc(C=O)cc3)CC2)cc(OC)c1OC,inhibition,[1],29.5%
CSCC[C@H](NC(=O)OC(C)(C)C)C(=O)N1CCC[C@H]1C(=O)Nc1ccc(CN)cc1,inhibition,"PRVABC59, Concentration 49.5 uM, Number of replicates 2.0, Standard deviation 0.21792892032952232 %",0.712%
same,inhibition,"PRVABC59, Concentration 99.01 uM, Number of replicates 2.0, Standard deviation 0.11415322190521009 %",3.13%
same,inhibition,"PRVABC59, Concentration 198.0 uM, Number of replicates 2.0, Standard deviation 3.3166708849996684 %",5.1%
O=Cc1ccc(N2CCC(C(=O)N3CCN(CC(=O)N4CCOCC4)CC3)CC2)cc1,inhibition,[1],19.3%
O=Cc1ccc(N2CCC(C(=O)Nc3cc(Cl)ccc3Br)CC2)cc1,inhibition,[1],19.5%
O=Cc1ccc(N2CCC(C(=O)N(CCCO)Cc3ccncc3)CC2)cc1,inhibition,[1],21.9%
CNC(=O)[C@H]1CCCN(S(=O)(=O)c2ccc(Oc3ccccc3Cl)cc2)C1,inhibition,"PRVABC59, Concentration 49.5 uM, Number of replicates 2.0, Standard deviation 4.537978996087977 %",5.38%
same,inhibition,"PRVABC59, Concentration 99.01 uM, Number of replicates 2.0, Standard deviation 0.050727272518135885 %",6.35%
same,inhibition,"PRVABC59, Concentration 198.0 uM, Number of replicates 2.0, Standard deviation 0.9173185714068767 %",4.62%
O=Cc1ccc(N2CCC(C(=O)N(Cc3c(F)cccc3Cl)C3CC3)CC2)cc1,inhibition,[1],23.1%
O=C(Nc1ccc2cc(Br)ccc2c1)c1cc(Cl)ccc1NS(=O)(=O)c1ccc(Oc2ccccc2Cl)cc1,inhibition,[2],45.9%
Cc1cc(CO)c2cccc(NC(=O)Cc3c(C)c4c(=O)[nH]n(C)c4[nH]c3=O)c2n1,inhibition,"PRVABC59, Concentration 49.95 uM, Number of replicates 2.0, Standard deviation 0.16559867672197162 %",15%
same,inhibition,"PRVABC59, Concentration 99.9 uM, Number of replicates 2.0, Standard deviation 1.570678848435362 %",29.8%
COc1cc2c(cc1OC)CN(C(=O)c1cc(Cl)ccc1NS(=O)(=O)c1ccc(Oc3ccccc3Cl)cc1)CC2,inhibition,[2],14%
COCCN(Cc1cccc2ccccc12)C(=O)c1cc(Cl)ccc1NS(=O)(=O)c1ccc(Oc2ccccc2Cl)cc1,inhibition,[2],21.2%
COc1ccc(CNC(=O)C2CCN(c3ccc(C=O)cc3)CC2)c(Cl)c1,inhibition,[3],9.91%
CC1(C)[C@H]2CC[C@]1(C)[C@H](NC(=O)c1cc(Cl)ccc1NS(=O)(=O)c1ccc(Oc3ccccc3Cl)cc1)C2,inhibition,[2],42.8%
O=Cc1ccc(N2CCC(C(=O)NCc3ccc(F)c(Cl)c3)CC2)cc1,inhibition,[3],22.8%
O=Cc1ccc(N2CCC(C(=O)Nc3ccc(-n4ccnc4)cc3)CC2)cc1,inhibition,[1],22.6%
Cc1cc(CO)c2cccc(Cc3cccc(NC(=O)C[C@H]4CCCN4)c3)c2n1,inhibition,"PRVABC59, Concentration 49.95 uM, Number of replicates 2.0, Standard deviation 0.1706171862678608 %",-9.82%
CNC(=O)c1cc(Cl)ccc1NS(=O)(=O)c1ccc(Cl)cc1C(=O)OC,inhibition,"PRVABC59, Concentration 49.5 uM, Number of replicates 2.0, Standard deviation 3.210164618700881 %",-0.406%
same,inhibition,"PRVABC59, Concentration 99.01 uM, Number of replicates 2.0, Standard deviation 3.769495150261016 %",2.47%
same,inhibition,"PRVABC59, Concentration 198.0 uM, Number of replicates 2.0, Standard deviation 2.8227683202777234 %",6.64%
O=Cc1ccc(N2CCC(C(=O)Nc3n[nH]cc3Br)CC2)cc1,inhibition,[1],19%
Cn1cc(NC(=O)c2ccccc2C(F)(F)F)c(-c2ccc3nncn3c2)n1,inhibition,"PRVABC59, Concentration 49.5 uM, Number of replicates 2.0, Standard deviation 1.0863104066087632 %",-8.05%
same,inhibition,"PRVABC59, Concentration 99.01 uM, Number of replicates 2.0, Standard deviation 0.7461135208959859 %",-5.65%
same,inhibition,"PRVABC59, Concentration 198.0 uM, Number of replicates 2.0, Standard deviation 0.13143966752825625 %",-3.1%
O=C(Nc1ccccc1I)c1cc(Cl)ccc1NS(=O)(=O)c1ccc(Oc2ccccc2Cl)cc1,inhibition,[2],26.7%
Cc1cc(CO)c2cccc(Cc3cccc(NC(=O)c4ccc(O)cc4)c3)c2n1,inhibition,"PRVABC59, Concentration 49.95 uM, Number of replicates 2.0, Standard deviation 2.8960178571157167 %",-0.029%
same,inhibition,"PRVABC59, Concentration 99.9 uM, Number of replicates 2.0, Standard deviation 3.293011583000684 %",3.78%
O=Cc1ccc(N2CCC(C(=O)Nc3ccc4nccnc4c3Br)CC2)cc1,inhibition,[1],13.2%
Cc1cnccc1NC(=O)C1(C(=O)Nc2ccc(F)cc2)CC1,inhibition,"PRVABC59, Concentration 49.5 uM, Number of replicates 2.0, Standard deviation 2.17886191854502 %",0.65%
same,inhibition,"PRVABC59, Concentration 99.01 uM, Number of replicates 2.0, Standard deviation 2.3265375425706125 %",1.23%
same,inhibition,"PRVABC59, Concentration 198.0 uM, Number of replicates 2.0, Standard deviation 2.36280863571033 %",2.11%
c1ccc2c([C@H]3CCN(Cc4ccnn4C4CCOCC4)C3)c[nH]c2c1,inhibition,"PRVABC59, Concentration 49.5 uM, Number of replicates 2.0, Standard deviation 0.9689729060048582 %",2.73%
same,inhibition,"PRVABC59, Concentration 99.01 uM, Number of replicates 2.0, Standard deviation 1.2714567916700876 %",5.36%
same,inhibition,"PRVABC59, Concentration 198.0 uM, Number of replicates 2.0, Standard deviation 1.125341760077732 %",10.1%
CC1(C)CC(O)CC(C)(C)N1C(=O)C1CCN(c2ccc(C=O)cc2)CC1,inhibition,[1],28.7%
O=C(NCc1ccc(SC(F)(F)F)cc1)c1cc(Cl)ccc1NS(=O)(=O)c1ccc(Oc2ccccc2Cl)cc1,inhibition,[2],24.1%
O=Cc1ccc(N2CCC(C(=O)NC3CCN(C(=O)Nc4ccccc4)CC3)CC2)cc1,inhibition,[1],27.1%
Cc1cc(CO)c2cccc(NC(=O)[C@H](N)CCO)c2n1,inhibition,"PRVABC59, Concentration 49.95 uM, Number of replicates 2.0, Standard deviation 1.0738831554442352 %",-6.11%
same,inhibition,"PRVABC59, Concentration 99.9 uM, Number of replicates 2.0, Standard deviation 2.7198345051524164 %",-0.085%
